In US20200148733A1 (Pieris, published 2020):

Experiments:
human IL-17A [1] = molecular target: T1, human IL-17A (human, UniProt Q16552 24-155); experiment: competition ELISA (ECL): biotinylated hIL-17A pre-incubated with varied binder, free hIL-17A captured on coated hIL-17RA (competitor)
T1 construct: also called hIL-17A; IL-17 A/A

human IL-17A [2] = molecular target: T1, human IL-17A; experiment: cell-based or functional assay
human IL-17A [3] = molecular target: T1, human IL-17A; experiment: cell-based or functional assay; remark: listed apart in the source
human IL-23 [4] = molecular target: T2, human IL-23 (human, UniProt Q9NPF7 20-189; P29460 23-328); experiment: competition ECL assay: biotinylated hIL-23 pre-incubated with varied binder, free hIL-23 captured on coated soluble hIL-23R (competitor)
T2 construct: Heterodimer of p19 and p40; in the proliferation assays CAT # HZ-1254, HumanZyme; also called hIL-23; hIL23
T2 sequence (looked up) 1: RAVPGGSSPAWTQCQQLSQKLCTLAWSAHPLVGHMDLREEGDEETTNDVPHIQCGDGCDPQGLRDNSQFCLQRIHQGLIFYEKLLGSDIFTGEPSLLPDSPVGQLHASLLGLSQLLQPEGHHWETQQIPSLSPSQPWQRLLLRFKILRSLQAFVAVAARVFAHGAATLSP
T2 sequence (looked up) 2: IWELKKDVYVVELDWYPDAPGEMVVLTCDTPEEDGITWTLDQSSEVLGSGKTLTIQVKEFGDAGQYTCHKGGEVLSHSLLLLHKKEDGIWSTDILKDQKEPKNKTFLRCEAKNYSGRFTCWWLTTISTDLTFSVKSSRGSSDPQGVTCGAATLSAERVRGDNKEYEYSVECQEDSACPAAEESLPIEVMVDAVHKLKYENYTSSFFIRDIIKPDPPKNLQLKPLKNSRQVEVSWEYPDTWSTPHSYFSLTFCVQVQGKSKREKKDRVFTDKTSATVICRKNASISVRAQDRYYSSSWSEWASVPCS

human IL-23 [5] = molecular target: T2, human IL-23; experiment: cell-based or functional assay
human IL-12p40 = molecular target: T3, human IL-12p40 (human, UniProt P29460 23-328); experiment: solution competition ELISA, 100 nM mutein, plate with biotinylated hIL-23
T3 construct: also called hIL-12p40
T3 sequence (looked up): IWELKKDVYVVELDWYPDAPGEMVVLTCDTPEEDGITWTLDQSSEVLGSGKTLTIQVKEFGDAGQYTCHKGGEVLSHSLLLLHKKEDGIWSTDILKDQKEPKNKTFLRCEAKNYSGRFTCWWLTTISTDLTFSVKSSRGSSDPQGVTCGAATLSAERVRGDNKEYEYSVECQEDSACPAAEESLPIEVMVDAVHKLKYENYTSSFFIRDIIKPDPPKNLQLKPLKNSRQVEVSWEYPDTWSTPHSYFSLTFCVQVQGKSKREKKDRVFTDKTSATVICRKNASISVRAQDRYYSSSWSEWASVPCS
Protocol: In the following detailed experimental protocol, incubation and washing steps were performed as described above in the competition ELISA protocol. A 384-well plate suitable for fluorescence measurements (Greiner FLUOTRAC™ 600, black flat bottom, high-binding) was coated with 20 μl of Neutravidin at a concentration of 5 μg/ml in PBS over night at 4° C. After washing, the Neutravidin-coated wells were blocked with 100 μl blocking buffer (PBS-T/BSA) for 1h at room temperature.
Note that the lipocalein muteins contained a C-terminal Streptag fusion to allow binding and subsequent detection with the aid of an anti-Streptag antibody.

human IL-23 [6] = molecular target: T2, human IL-23; experiment: competition ELISA (fluorescence): 1.6 nM hIL-23 pre-incubated with varied mutein, free hIL-23 captured on hIL-23R-Fc (competitor)

T1 sequence (Q16552 24-155 limits assumed): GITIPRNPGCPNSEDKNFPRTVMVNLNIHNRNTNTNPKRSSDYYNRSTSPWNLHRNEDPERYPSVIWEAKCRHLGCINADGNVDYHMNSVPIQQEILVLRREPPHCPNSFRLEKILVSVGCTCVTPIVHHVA

Binder | IC50 (human IL-17A [1]) [nM] | IC50, hIL-17A-induced secretion of G-CSF in U87-MG cells (human IL-17A [3]) [nM] | IC50 (human IL-23 [4]) [nM] | IC50 (human IL-23 [6]) [nM] | binding result (human IL-12p40) | further results
fusion protein SEQ ID NO: 17 (designed binder) ASDEEIQDVSGTWYLKAMTVDFWCSGIHEESVTPMTLTTLEGGNLEAKVTMDIEGFLQEFKAVLEKTDEPGKYTADGGKHVAYIIRSHVKDHYIFYSEGDCPGPVPGVWLVGRDPKNNLEALEDFEKAAGARGLSTESILIPRQSETSSPGSGAGGGSGGGGSQDSTSDLIPAPPLSKVPLQQNFQDNQFHGKWYVVGMAGNLMLREDKDPTKMSATIYELKEDKSYNVTWVDFRFKKCKYQIGTFVPGSQPGEFTLGGIKSMPGMTSFLVRVVSTNYNQHAMVFFKYVYQNREYFEITLYGRTKELTSELKENFIRFSKSLGLPENHIVFPVPIDQCIDG | 0.05 |  |  |  |  | EC50 [nM] AVERAGE, hIL-17A-induced secretion of G-CSF in U87-MG cells (human IL-17A [2]): 1.7 nM; EC50 [nM] Exp 1, hIL-17A-induced secretion of G-CSF in U87-MG cells (human IL-17A [2]): 2.1 nM; EC50 [nM] Exp 2, hIL-17A-induced secretion of G-CSF in U87-MG cells (human IL-17A [2]): 1.3 nM
fusion protein SEQ ID NO: 16 (designed binder) QDSTSDLIPAPPLSKVPLQQNFQDNQFHGKWYVVGMAGNLMLREDKDPTKMSATIYELKEDKSYNVTWVDFRFKKCKYQIGTFVPGSQPGEFTLGGIKSMPGMTSFLVRVVSTNYNQHAMVFFKYVYQNREYFEITLYGRTKELTSELKENFIRFSKSLGLPENHIVFPVPIDQCIDGGGGSGGGGSASDEEIQDVSGTWYLKAMTVDFWCSGIHEESVTPMTLTTLEGGNLEAKVTMDIEGFLQEFKAVLEKTDEPGKYTADGGKHVAYIIRSHVKDHYIFYSEGDCPGPVPGVWLVGRDPKNNLEALEDFEKAAGARGLSTESILIPRQSETSSPG | 0.08 |  |  |  |  | EC50 [nM] AVERAGE, hIL-17A-induced secretion of G-CSF in U87-MG cells (human IL-17A [2]): 2.2 nM; EC50 [nM] Exp 1, hIL-17A-induced secretion of G-CSF in U87-MG cells (human IL-17A [2]): 2.3 nM; EC50 [nM] Exp 2, hIL-17A-induced secretion of G-CSF in U87-MG cells (human IL-17A [2]): 2.1 nM
bivalent fusion protein (SEQ ID NO: 40) (designed binder) ASDEEIQDVSGTWYLKAMTVDFWCSGIHEESVTPMTLTTLEGGNLEAKVTMDIEGFLQEFKAVLEKTDEPGKYTADGGKHVAYIIRSHVKDHYIFYSEGDCPGPVPGVWLVGRDPKNNLEALEDFEKAAGARGLSTESILIPRQSETSSPGSGAGGGGSGGGGSASDEEIQDVSGTWYLKAMTVDFWCSGIHEESVTPMTLTTLEGGNLEAKVTMDIEGFLQEFKAVLEKTDEPGKYTADGGKHVAYIIRSHVKDHYIFYSEGDCPGPVPGVWLVGRDPKNNLEALEDFEKAAGARGLSTESILIPRQSETSSPG |  | 0.12 |  |  |  | 
fusion protein SEQ ID NO: 53 (designed binder) ASDEEIQDVSGTWYLKAMTVDFWCSGIHEESVTPMTLTTLEGGNLEAKVTMDIEGFLQEFKAVLEKTDEPGKYTADGGKHVAYIIRSHVKDHYIFYSEGDCPGPVPGVWLVGRDPKNNLEALEDFEKAAGARGLSTESILIPRQSETSSPGSDGGGGSGGGGSQDSTSDLIPAPPLSKVPLQQNFQDNQFHGKWYVVGEAGNLLLREDKDPRKMTATIYELKEDKSYDVTRVEFGVKTYKYQIGTFVPGSQPGEFTLGGIKSMPGMTSFLVRVVSTNYNQHAMVFFKYVYQNREYFEITLYGRTKELTSELKENFIRFSKSLGLPENHIVFPVPIDQAIDG | 0.08 | 2.9 | 0.8 |  |  | IC50, hIL-23-induced proliferation of Ba/F3 cells expressing hIL-23R and hIL-12Rβ1 (human IL-23 [5]): 4.3 nM
fusion protein SEQ ID NO: 55 (designed binder) ASDEEIQDVSGTWYLKAMTVDFWCSGIHEESVTPMTLTTLEGGNLEAKVTMDIEGFLQEFKAVLEKTDEPGKYTADGGKHVAYIIRSHVKDHYIFYSEGDCPGPVPGVWLVGRDPKNNLEALEDFEKAAGARGLSTESILIPRQSETSSPGSDGGGGSGGGGSASDEEIQDVSGTWYLKAMTVDFWCSGIHEESVTPMTLTTLEGGNLEAKVTMDIEGFLQEFKAVLEKTDEPGKYTADGGKHVAYIIRSHVKDHYIFYSEGDCPGPVPGVWLVGRDPKNNLEALEDFEKAAGARGLSTESILIPRQSETSSPGSDGGGGSGGGGSQDSTSDLIPAPPLSKVPLQQNFQDNQFHGKWYVVGEAGNLLLREDKDPRKMTATIYELKEDKSYDVTRVEFGVKTYKYQIGTFVPGSQPGEFTLGGIKSMPGMTSFLVRVVSTNYNQHAMVFFKYVYQNREYFEITLYGRTKELTSELKENFIRFSKSLGLPENHIVFPVPIDQAIDG | 0.019 |  | 0.65 |  |  | 
lipocalin mutein SEQ ID NO: 6 (designed binder, Tear lipocalin mutein specific for IL-23p19) ASDEEIQDVSGTWYLKAMTVDWQCTWDDDPSVTPMTLTTLEGGNLEAKVTMPIFGLWQEEKAVLEKTDEPGKYTADGGKHVAYIIRSHVKDHYIFYSEGACYGQPVPGVWLVGRDPKNNLEALEDFEKAAGARGLSTESILIPRQSETSSPG |  |  |  | 25 | no binding (tested: ligand up to 1000 nM) | 

Continued, in another order:

IC50 (human IL-17A [1]) [nM] | IC50, hIL-17A-induced secretion of G-CSF in U87-MG cells (human IL-17A [3]) [nM] | IC50 (human IL-23 [4]) [nM] | IC50 (human IL-23 [6]) [nM] | Binder | binding result (human IL-12p40) | further results
 | 289 |  |  | lipocalin mutein SEQ ID NO: 2 (designed binder) ASDEEIQDVSGTWYLKAMTVDFWCSGVHEESVTPMTLTTLEGGNLEAKVTMDIGGFLQEVKAVLEKTDEPGKYTADGGKHVAYIIRSHVKDHYIFYSEGDCPGLPVPGVWLVGRDPKNNLEALEDFEKAAGARGLSTESILIPRQSETSSPG |  | 
0.09 | 1.5 | 1.6 |  | fusion protein SEQ ID NO: 57 (designed binder) QDSTSDLIPAPPLSKVPLQQNFQDNQFHGKWYVVGEAGNLLLREDKDPRKMTATIYELKEDKSYDVTRVEFGVKTYKYQIGTFVPGSQPGEFTLGGIKSMPGMTSFLVRVVSTNYNQHAMVFFKYVYQNREYFEITLYGRTKELTSELKENFIRFSKSLGLPENHIVFPVPIDQAIDGGGGGSGGGGSASDEEIQDVSGTWYLKAMTVDFWCSGIHEESVTPMTLTTLEGGNLEAKVTMDIEGFLQEFKAVLEKTDEPGKYTADGGKHVAYIIRSHVKDHYIFYSEGDCPGPVPGVWLVGRDPKNNLEALEDFEKAAGARGLSTESILIPRQSETSSPG |  | IC50, hIL-23-induced proliferation of Ba/F3 cells expressing hIL-23R and hIL-12Rβ1 (human IL-23 [5]): 4.4 nM
 |  |  | 10 | lipocalin mutein SEQ ID NO: 12 (designed binder, Tear lipocalin mutein specific for IL-23p19) ASDEEIQDVSGTWYLKAMTVDWQCTWADEPSVTPMTLTTLEGGNLEAKVTIPTFGLAEEEKAVLEKTDEPGKYTADGGKHVAYIIRSHVKDHYIFYSEGRCWGRPVPGVWLVGRDPKNNLEALEDFEKAAGARGLSTESILIPRQSETSSPG | no binding (tested: ligand up to 1000 nM) | 
 |  |  | 11 | lipocalin mutein SEQ ID NO: 13 (designed binder, Tear lipocalin mutein specific for IL-23p19) ASDEEIQDVSGTWYLKAMTVDWVCAFDDDPSVTPMTLTTLEGGNLEAKVTIPTFGLYQEEKAVLEKTDEPGKYTADGGKHVAYIIRSHVKDHYIFYSEGACHGHPVPGVWLVGRDPKNNLEALEDFEKAAGARGLSTESILIPRQSETSSPG | no binding (tested: ligand up to 1000 nM) | 
